Experimental data: PubChem BioAssay AID1347071 (National Center for Advancing Translational Sciences (NCATS), 2019)
Out of some 410,000 compounds screened, about 260 (0.063%) were called active. Inconclusive means that the source gave no clear call. Such entries were picked first, then a sample of the others. The call rests on the fitted dose curve; in most records, active means well fitted activation curve with a large enough effect; inconclusive means small, poorly fitted or top-dose-only effect; inactive means no such curve, though single readings can be large or run the other way. Potencies of inconclusive entries are left out as doubtful fits.

Test: qHTS for compounds that reverse cellular toxicity of Amyloid beta (A-beta) peptide in yeast: Primary Screen; further: nearly all actives have a fitted effect of over 55% in size
Settings: yeast expressing A-beta42, growth rescue, OD600, 48 h; growth rescue: at 46.1 µM (top of the series), 0% DMSO, 100% iron-clioquinol control
Procedure, shortened: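 Yeast A-beta toxicity model in growth medium with pinned compounds, 48 h at 30 C; growth read as absorbance at 600 nm. Normalized to FeCl3/clioquinol equimolar mix (positive) and DMSO (negative).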
Potency means the concentration at half of the fitted maximal effect; tags describe the fitted curve by direction and shape.

Structure (SMILES)	Potency	growth rescue
COCCN(C(=S)Nc1ccc(C(C)C)cc1)C(C)c1cccs1 (centres undefined)	inconclusive [activator, single point]	
CCOC(=O)c1c(N2C(=O)CC(Sc3ccccc3C(=O)O)C2=O)sc(C)c1C (centres undefined)	inconclusive [activator, single point]	
O=C(NCCSc1c[nH]c2ccccc12)c1ccc2c(c1)OCO2	inconclusive [activator, partial curve, poor fit]	
Cc1cccc2nc(-c3cccnc3)c(Nc3ccc(C(C)C)cc3)n12		inactive: 20.1%
CC(C)(C)c1ccc(CSc2ccc(S(=O)(=O)N3CCOCC3)cn2)cc1	inconclusive [activator, single point]	
CC1Cc2ccccc2N1CC(=O)NC(=O)NC1CCCCC1 (centres undefined)	inconclusive [activator, partial curve, poor fit]	
O=C(Nc1nc(-c2ccccn2)cs1)Nc1ccc(F)cc1F	inconclusive [activator, partial curve, poor fit]	
CC(C)c1ccc(/C=N/n2c(COc3ccccc3)n[nH]c2=S)cc1	inconclusive [activator, partial curve, poor fit]	
Cn1c(=O)c2c(nc(SCC(=O)NCc3ccc4c(c3)OCO4)n2Cc2ccc(Cl)cc2)n(C)c1=O	inconclusive [activator, full curve]	
CC(C)(C)c1ccc(-c2n[nH]c(=S)n2Cc2ccccc2)cc1	inconclusive [activator, single point]	
N#Cc1cn(CCOc2ccccc2F)c2ccccc12	inconclusive [activator, partial curve, poor fit]	
c1ccc(C2NCCn3cccc32)cc1 (centres undefined)	inconclusive [activator, single point]	
O=[N+]([O-])c1ccc(CSc2nc3ccccc3o2)cc1	inconclusive [activator, partial curve, poor fit]	
COc1cc(C2CC(=O)Nc3c2c(=O)[nH]c2nc4ccccc4n32)ccc1O (centres undefined)		inactive: 0%
Cc1cccc(NC(=O)c2sc3nc4n(c(=O)c3c2C)N=C(c2ccc(F)cc2)CS4)c1C		inactive: -11.6%
COc1cccc(OC(=O)CSc2nnc(-c3ccccc3OC)o2)c1	inconclusive [activator, full curve]	
Cc1ccc(Sc2ncccc2C(N)=O)cc1	inconclusive [activator, single point]	
C/C(Cc1ccccc1)=N\NC(=O)c1ccccn1	inconclusive [activator, full curve]	
Cc1cc(C)c(N2CCN(S(=O)(=O)N3CCCCCC3)CC2)c(C)c1		inactive: 25%
Cc1cccc(C2=NN(c3ccccc3)[C@H](CO)[C@H]2c2ccc(F)cc2)c1	inconclusive [activator, single point]	
Cc1nnc(NC(=O)C23CC4CC(CC(C4)C2)C3)s1	inconclusive [activator, single point]	
O=C(CC(CC(=O)c1ccccc1)c1ccccc1)c1ccccc1		inactive: 5.79%

Structure (SMILES)	Potency	growth rescue
CCOC(=O)N1CCN(C(=S)NC(=O)c2c(-c3c(Cl)cccc3Cl)noc2C)CC1	inconclusive [activator, partial curve, poor fit]	
CC1Cc2ccccc2N1c1ncnc2nc[nH]c12 (centres undefined)		inactive: -53.8%
CC(=O)Nc1ccc(-c2ccnc3c2CC(C(=O)Nc2ccc(C(C)C)cc2)O3)cc1 (centres undefined)		inactive: 11.6%
Cc1ccc(CN(Cc2cccnc2)C(=S)Nc2cc(Cl)ccc2C)cc1	inconclusive [activator, partial curve, poor fit]	
CC(Sc1ccccn1)C(=O)Nc1ccc2c(c1)OCO2 (centres undefined)	inconclusive [activator, partial curve]	
O=C(CN1CCN(c2ccc(Cl)cc2)CC1)Nc1ccc(F)cc1F		inactive: 13.1%
CCN(CC)c1ccc(/C=N/NC(=S)NCc2ccccc2)c(O)c1	inconclusive [activator, single point]	
CCOc1ccccc1NC(=O)C1CCCN(S(=O)(=O)c2ccc(-n3cnnn3)cc2)C1 (centres undefined)		inactive: 25.5%
COc1ccc(NC(=O)c2ccco2)cc1N	inconclusive [activator, full curve, poor fit]	
CC12CCC(C(=O)N(NC(=O)c3cc(Cl)ccc3O)C1=O)C2(C)C (centres undefined)	inconclusive [activator, single point]	
CC(C)C(=O)NC(c1ccco1)c1ccc2cccnc2c1O (centres undefined)	inconclusive [activator, single point]	
C=CCN1C(=O)C2(OCCCO2)c2cccc(C)c21		inactive: 6.61%
COc1cccc(CNC(=S)NC2CCCC2)c1	inconclusive [activator, single point]	
Nc1ccc(S(=O)(=O)c2ccc(N)c(N)c2)cc1	inconclusive [activator, partial curve, poor fit]	
Cc1ccc(C2CN(c3ccccc3)CC2C(=O)c2ccc(F)cc2)cc1 (centres undefined)	inconclusive [activator, full curve]	
CCOc1sc2nc(C)n(CC(=O)Nc3cccc(C)c3)c(=O)c2c1C		inactive: -3.72%
Nc1cc(CN2C(=O)c3ccccc3C2=O)cc(Cl)c1O	inconclusive [activator, single point]	
COc1cccc(C(O)c2nc(-c3cccc4cccnc34)cs2)c1 (centres undefined)	inconclusive [activator, partial curve, poor fit]	
Cc1ccc(Sc2c([N+](=O)[O-])ncn2C)cc1		inactive: -27.1%
CCOC(=O)C(=O)/C(=C\N(C)C)c1onc(-c2c(Cl)cccc2Cl)c1C(=O)OC	inconclusive [activator, single point]	
CCNc1nc(NCC)nc(OCCOC(C)=O)n1	inconclusive [activator, single point]	
Cc1ccc(C2C(=O)N(C3CCCC3)CC(=O)N2C2CCCCC2)cc1 (centres undefined)	inconclusive [activator, single point]	
